In all, about 33,000 sequences were measured (“E-score (-0.5 to 0.5)”: median about -0.04, highest 2% from about 0.36 on). The list shows a part of the results.
Each sequence was assayed against T1, Hmlalpha2 (UniProt P0CY09) (assay: PBM E-score (8-mer binding enrichment) (E-score (-0.5 to 0.5)); higher = stronger / more preferred TF binding; most listed sequences are background and not binding sites). Conditions: protein concentration: 200 nM; construct: GST-full length.
T1 sequence: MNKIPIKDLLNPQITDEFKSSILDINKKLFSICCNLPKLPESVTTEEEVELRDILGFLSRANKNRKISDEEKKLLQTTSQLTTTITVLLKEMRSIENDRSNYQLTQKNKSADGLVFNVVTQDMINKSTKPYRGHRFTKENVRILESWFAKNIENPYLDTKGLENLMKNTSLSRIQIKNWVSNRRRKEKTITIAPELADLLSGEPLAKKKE
Method in brief: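 GST-tagged yeast TFs (full-length or DNA-binding domain) were made by PURExpress in vitro transcription/translation and applied at about 100-200 nM to universal all-10-mer Agilent arrays. The arrays were made double-stranded by primer extension, on fresh or once-stripped slides. Bound protein was detected with fluorescent anti-GST, and scans were normalised with masliner. Each ungapped eight-base word, pooled with its reverse complement, received an E-score (modified Wilcoxon-Mann-Whitney statistic) from the Universal PBM Analysis Suite.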

| Sequence | PBM E-score |
| --- | --- |
| AAATCTCG | 0.0861 |
| AGTCCCAT | -0.194 |
| TCTGTCCA | -0.0836 |
| AAGCCAGC | -0.0424 |
| CTTCTATC | -0.239 |
| CCGGCCTA | -0.0401 |
| CGTGGCTC | -0.209 |
| ATGTGAGA | -0.0137 |
| ATAGTCGC | -0.0918 |
| CAACCCTA | -0.0776 |
| ATCATTAC | 0.329 |
| ATACTGTG | 0.0506 |
| ATTACTCG | 0.348 |
| CCTCGCCC | -0.178 |
| ACCACTCA | 0.00925 |
| CCGCATTC | -0.0132 |
| CGCGGCCA | -0.0801 |
| CATCCTCC | -0.113 |
| GTAGCTTA | 0.128 |
| AATGGCTG | -0.118 |
| AGAACTTG | 0.0804 |
| ACAAGAAC | 0.311 |
| CCGCCATC | -0.318 |
| TATCTACA | 0.371 |
| GAGGTAAC | 0.0376 |

| Sequence | PBM E-score |
| --- | --- |
| ACGGGGCT | -0.178 |
| CTAATCAG | -0.22 |
| GTTGATTA | 0.315 |
| CAGCACAA | 0.175 |
| AAGCGGGA | -0.0647 |
| ACAGCGGA | -0.148 |
| CCAACTGC | -0.241 |
| CACCGAGA | -0.219 |
| AACCGCAC | 0.0925 |
| CTCTACAA | 0.277 |
| GGGTCAGA | -0.269 |
| AGATACAA | 0.276 |
| CATCATTA | 0.231 |
| CACAATGG | 0.0776 |
| TTATATAA | 0.285 |
| AGCATATA | 0.042 |
| AGCGGCGG | -0.0376 |
| GAGCATGC | -0.0305 |
| CGCCCCAG | -0.22 |
| CCTTGATC | -0.0105 |
| ACATGAAG | 0.338 |
| ACCAGAAT | 0.0511 |
| ATTGCTTA | 0.0327 |
| ATAACGGC | -0.0332 |
| CTGTCGCA | -0.059 |

| Sequence | PBM E-score |
| --- | --- |
| ACACATCG | 0.248 |
| CATAAACG | 0.104 |
| GCCCGCCA | -0.253 |
| CCACAGCG | -0.0107 |
| ACCCGCAT | -0.00911 |
| ATTTTGTG | 0.161 |
| GGCGTCAA | -0.0619 |
| ATTTGCAC | 0.051 |
| CAGCTTAG | -0.0545 |
| ATGAGGGG | -0.0697 |
| CGTACATC | 0.109 |
| ATACTCAC | 0.0554 |
| GAGTAAGC | -0.118 |
| GATTAGAC | -0.0255 |
| GCACATGC | 0.0131 |
| GGTGCTAC | -0.177 |
| AGCGGACC | -0.255 |
| CCGGATTA | 0.0175 |
| AACTGCCG | -0.0627 |
| CCGAGACG | -0.0875 |
| CGCAAGAA | -0.00151 |
| ATCGTATC | -0.107 |
| GCAAGAAA | -0.0824 |
| AATACCGG | 0.0697 |
| AGTCCTTG | -0.118 |

| Sequence | PBM E-score |
| --- | --- |
| GGACGGAC | -0.412 |
| GATGGCAA | -0.0428 |
| TAAAGCTA | 0.192 |
| AGTGCCCA | -0.163 |
| CGCCGCTA | -0.273 |
| AACGGTCA | -0.185 |
| GCAGGGCC | -0.165 |
| CGACTTTC | -0.111 |
| GCACAGTA | -0.0102 |
| CATGGGAC | 0.0132 |
| CTCACTAA | -0.126 |
| GCCAGATA | -0.172 |
| CTAATATC | -0.0301 |
| ACCATCAA | -0.00346 |
| CCGTCAGC | -0.226 |
| CCTATAGC | -0.142 |
| ACGTCATA | 0.094 |
| AGCGCATA | 0.105 |
| AACTGCCA | -0.196 |
| CCTTCGGA | -0.133 |
| CGCTCAGA | -0.0483 |
| ATCCCACG | -0.226 |
| AGCATACG | -0.0437 |
| CTTAGGTC | -0.22 |
| ATTGTGAG | -0.0479 |

| Sequence | PBM E-score |
| --- | --- |
| AATAGACG | -0.103 |
| CCTCGCAG | -0.223 |
| ACGCCAAT | 0.0502 |
| CCCTCATC | -0.231 |
| CTGTAAAG | 0.244 |
| CATGCGAA | 0.0661 |
| CAGTCCGA | -0.0596 |
| CCGTGGAG | -0.308 |
| CCTGCCCA | -0.182 |
| CAGGCCGG | -0.0707 |
| ACGAAATA | 0.171 |
| GCCGTACC | -0.16 |
| AAGGCGTC | -0.0484 |
| TAGATACA | 0.269 |
| AACCACAG | -0.139 |
| ACCATGCC | 0.0244 |
| GTCGAGGA | -0.211 |
| CAAGAGAG | -0.0803 |
| GAAATATA | 0.236 |
| CAGTCAGG | -0.17 |
| CGCCTGTC | -0.216 |
| ATCGTCAG | -0.212 |
| CTACTGCA | 0.0655 |
| ATCACTGA | -0.0034 |
| CTTCATCC | -0.306 |

| Sequence | PBM E-score |
| --- | --- |
| AGAATCAT | 0.0275 |
| CTCGAGCA | -0.0482 |
| ACAAGTGC | -0.0122 |
| CGGCCTTA | -0.103 |
| AGCGATGC | -0.151 |
| GCGTGGCC | -0.12 |
| ATTGGTAA | 0.0204 |
| AACACCCT | 0.0799 |
| ACAGATGA | 0.0954 |
| ACGGGGAA | -0.0619 |
| AAACCAGA | 0.0147 |
| GGACTGAA | -0.0654 |
| CCAGTGTC | 0.0183 |
| ACGGAATG | -0.0891 |
| ACACCTAA | 0.0834 |
| AGCGGTTC | -0.0786 |
| GCAAACTA | 0.141 |
| CAGAAACA | 0.194 |
| AATCCGAT | 0.0513 |
| CCTAACCG | -0.218 |
| ATCTCTGA | -0.0796 |
| AAACCGAC | -0.0766 |
| GCTCTTCC | -0.169 |
| CAAAACGG | 0.113 |
| ACTTGAAG | 0.0783 |

| Sequence | PBM E-score |
| --- | --- |
| ACACTGAG | -0.00329 |
| CGTGCCGC | -0.0214 |
| ATTCATCG | 0.0389 |
| TCATAAAA | -0.00506 |
| AAGCCCTC | -0.138 |
| CTAAATGA | -0.0333 |
| CCGCGGGC | -0.255 |
| ATCAAGCC | 0.066 |
| ACACATAC | 0.36 |
| AAAGTGGT | -0.157 |
| GGGAATAC | 0.292 |
| GGTCAGTA | -0.15 |
| GGATGCCA | -0.182 |
| TAGCACTA | -0.0956 |
| CCACTTGA | -0.0791 |
| ACAGTCTA | 0.044 |
| GCTATTAC | 0.247 |
| ACCAACCT | -0.00445 |
| ATCCCCCG | -0.227 |
| CTAAACAA | 0.0668 |
| CGTTAATC | 0.248 |
| CGAGGGGA | -0.172 |
